This sample is rich in variants without activity.
B1: TPR 5TU (parent)
chain: GGAUCUUCUCGAUCUAACAAAAAAGACAAAUCUGCCACAAAGCUUGAGAGCAUCUUCGGAUGCAGAGGCGGCAGCCUUCGGUGGCGCGAUAGCGCCAACGUUCUCAACUAUGACACGCAAAACGCGUGCUCCGUUGAAUGGAGUUUAUCAUG

Variants of: B1
Assay: polymerase ribozyme fitness, log enrichment relative to wild type (log ratio); higher = more active; in vitro selection for triplet polymerase activity
Procedure, shortened: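 To select mutant libraries of each subunit of a heterodimeric triplet polymerase ribozyme, built by PCR and transcribed, each was annealed with a biotinylated primer, partner subunit and triplets, then incubated frozen at −7 °C. Extended constructs were gel-excised, captured on streptavidin beads and amplified by RT-PCR, in one round carried out in triplicate. Illumina sequencing of input and output libraries kept genotypes with ≥10 input reads and ≥1 read per output. Fitness is the base-2 logarithm of genotype enrichment relative to wild-type enrichment, from inverse-variance-weighted replicate averages.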

Polymerase ribozyme fitness (log ratio), ≤ -4.2:
GGAUCUUCUCGAUCUAACAAAAAAGACAAAUCUGCCACAAAGCUUGAGAGCAUCUUCGGAUGCAGAGGCGGCAGCCUUCGGUGGCCUGAUAGCGCCAACGUUCUCAACUAUGACACGCAAAACGCGUGCUCCGUUGAAUGGAGUUUAUCAUA [G86C C87U G152A]
GGAUCUUCUCGAUCUAACAAAAAAGACAAAUCUGCCACAAAGCUUGAGAGCAUCUUCGGAUGCAGAGGCGGCAGCCUUCGGUGGCUCGAUAUCGCCAACGUUCUGAACUAUGACACGCAAAACGCGUGCUCCGUUGAAUGGAGUUUAUCAUG [G86U G92U C105G]
GGAUCUUCUCGAUCUAACAAAAAAGACAAAUCUGCCACAAAGCUUGAGAGCAUCUUCGGAUGCAGAGGCGGCAGCCUUCGGUGGCACGAUAGCGCCUACGUUCUCAAAUAUGAAACGCAAAACGCGUGCUCCGUGGAAUGGAGUUUAUCAUG [G86A A97U C108A C114A U135G]
GGAUCUUCUCGAUCUAACAAAAAAGACAAAUCUGCCACAAAGCUUGAGAGCAUCUUCGGAUGCAGAGGCGGCAGCCUUCGGUGGUGCGAUAGCGCCAACGUUCUCAACUAUGCCACGGAAAGCGCGUGCUCCGUUGAAAGGAGUUUAUCAUG [C85U A113C C118G A122G U139A]
GGAUCUUCUCGAUCUAACAAAAAAGACAAAUCUGCCACAAAGCUUGAGAGCAUCUUCGGAUGCAGAGGCGGCAGCCUUCGGUGGUGCGAUAGCGCCAACGUUCUCAACUAUGACACGCAAAACGCGUGCUCCAUUGAAUGGAGCUUAUCAUG [C85U G133A U144C]
GGAUCUUCUCGAUCUAACAAAAAAGACAAAUCUGCCACAAAGCUUGAGAGCAUCUUCGGAUGCAGAGGCGGCAGCCUUCGGUGGUGCGAUAGCGCCAACGUUCUCAACUAUGACACGCAAAACGCGUGCUCCGUUGACUGGAGUUUAUCAUG [C85U A138C]
GGAUCUUCUCGAUCUAACAAAAAAGACAAAUCUGCCACAAAGCUUGAGAGCAUCUUCGGAUGCAGAGGCGGCAGCCUUCGGUGGCCCGAUAGCGCCAACGUUGUCAACUAUGACACGCAUAACGCGUGCUCCGUUGAAUGGAGUUUAUCAUG [G86C C103G A120U]
GGAUCUUCUCGAUCUAACAAAAAAGACAAAUCUGCCACAAAGCUUGAGAGCAUCUUCGGAUGCAGAGGCGGCAGCCUUCGGUGGUGCGAUAGAGCCUACCUUCUCAACUAUGACACGCAAAACGCGUGCUCCGAUGAAUGGAGUUUAUGAUG [C85U C93A A97U G100C U134A C149G]
GGAUCUUCUCGAUCUAACAAAAAAGACAAAUCUGCCACAAAGCUUGAGAGCAUCUUCGGAUGCAGAGGCGGCAGCCUUCGGUGGGGCGAUAGCGCCAACGUGCUCAACUAUGACACGCAAAACGCGUGCUCCGUUGAAUGGAGUUUAUCAUG [C85G U102G]
GGAUCUUCUCGAUCUAACAAAAAAGACAAAUCUGCCACAAAGCUUGAGAGCAUCUUCGGAUGCAGAGGCGGCAGCCUUCGGUGGCUCGAUAGCGCCAACGUUCUCAACUAUGACACGCAAAACGCGUGCUCCGUUCAAUGGAGUUUAUCAUU [G86U G136C G152U]
GGAUCUUCUCGAUCUAACAAAAAAGACAAAUCUGCCACAAAGCUUGAGAGCAUCUUCGGAUGCAGAGGCGGCAGCCUUCGGUGGUGCGAGAGCGCCAACGUUCUCAACUAUGACACGCAAAACGCGUGCUCCGUUGAAUGGAGUUUAUCAUG [C85U U90G]
GGAUCUUCUCGAUCUAACAAAAAAGACAAAUCUGCCACAAAGCUUGAGAGCAUCUUCGGAUGCAGAGGCGGCAGCCUUCGGUGGCCCCAUAGCGCCAACGUUCUCAACUAUGACACGCAAAACGCGUGCUCCGUUGAAUGGAGUUUAUCAUG [G86C G88C]
GGAUCUUCUCGAUCUAACAAAAAAGACAAAUCUGCCACAAAGCUUGAGAGCAUCUUCGGAUGCAGAGGCGGCAGCCUUCGGUGGCACGAUACCGCCAACGUUCUGAACUAUGACACGCAAAACGCGUGCUCAGUUGGAUGGAGUUUAUCAUG [G86A G92C C105G C132A A137G]
GGAUCUUCUCGAUCUAACAAAAAAGACAAAUCUGCCACAAAGCUUGAGAGCAUCUUCGGAUGCAGAGGCGGCAGCCUUCGGUGGCCCGAUAGCGCCAACGUUCGCAACUAUGACACGCAAAACGCGUGCUCCGUUGAAUGGAGUUUAUCAUG [G86C U104G]
GGAUCUUCUCGAUCUAACAAAAAAGACAAAUCUGCCACAAAGCUUGAGAGCAUCUUCGGAUGCAGAGGCGGCAGCCUUCGGUGGUGGGAUAGCGCCAACGUUCUCAACUAUGACACGCAAAACGCGUGCUCCGUUGAAUGGAGUUUAUCAUG [C85U C87G]
GGAUCUUCUCGAUCUAACAAAAAAGACAAAUCUGCCACAAAGCUUGAGAGCAUCUUCGGAUGCAGAGGCGGCAGCCUUCGGUGGCAAGAUAGCGCCAACGUUCUCAACUAUGACAUGCAAAACGCGUGCUCCGUUGAAUGGAGUUUAUCAUG [G86A C87A C116U]
GGAUCUUCUCGAUCUAACAAAAAAGACAAAUCUGCCACAAAGCUUGAGAGCAUCUUCGGAUGCAGAGGCGGCAGCCUUCGGUGGCUCGAUCGCGCCAACGUUCCCAACUACGACUCGAAAAACGCGUGCUCCGUUGAAUGGAGUUUAUCAUG [G86U A91C U104C U111C A115U C118A]
GGAUCUUCUCGAUCUAACAAAAAAGACAAAUCUGCCACAAAGCUUGAGAGCAUCUUCGGAUGCAGAGGCGGCAGCCUUCGGUGGCACGAAAGCGCCAACGUUCUCAACUAUGACACGCAAAACGCGUGCUCCGUUGAGUGGAGUUUAUCAGG [G86A U90A A138G U151G]
GGAUCUUCUCGAUCUAACAAAAAAGACAAAUCUGCCACAAAGCUUGAGAGCAUCUUCGGAUGCAGAGGCGGCAGCCUUCGGUGGCACGAUAGCGCCAACGUUCUAAACUAUGACAGGCAAAACGGGUGCUCCGUUGAAUGGAGUUUAUCAUG [G86A C105A C116G C125G]

— the RNAGym collection of RNA variant scans (doi:10.1073/pnas.2313332121)
